Test results published in the supplement of paper PMC7125110.
± gives the standard error. Variants at the background level are over-represented here.

B1: glmS ribozyme (parent)
chain: AUAAAAGCGCCAGAACUACAGAAAUGUAGUUGACGAGGAGGAGGUUUAUCGAAUUUUCGGCGGAUGCCUCCAAA

Columns and labels:
Settings in all cases: with glucosamine-6-phosphate
glucosamine-6-phosphate [1] = variants of: B1; assay: self-cleavage kobs at 40 uM GlcN6P; higher = faster cleavage; RNA array
In short: (§1)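 Sequenced MiSeq chips were the platform: E. coli RNA polymerase transcribed barcoded ribozyme variants on them in situ, and a hybridised Cy3 probe tracked these at 37 °C. After glucosamine-6-phosphate (40 μM to 10 mM) in HEPES/KCl/Mg(OAc)2 buffer was flowed in, tiles were imaged over ~14 h. Signals normalised to baseline and to non-cleaving reference variants were reduced to per-tile medians and fit to one- or two-exponential decays to obtain kobs. kcat and KM were derived through weighted Michaelis–Menten fits across concentrations.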

glucosamine-6-phosphate [2] = variants of: B1; assay: self-cleavage kobs at 640 uM GlcN6P; higher = faster cleavage; RNA array
In short: as §1

glucosamine-6-phosphate [3] = variants of: B1; assay: self-cleavage kobs at 160 uM GlcN6P; higher = faster cleavage; RNA array
In short: as §1

glucosamine-6-phosphate [4] = variants of: B1; assay: self-cleavage kobs at 2500 uM GlcN6P; higher = faster cleavage; RNA array
In short: as §1

glucosamine-6-phosphate [5] = variants of: B1; assay: self-cleavage kobs at 10000 uM GlcN6P; higher = faster cleavage; RNA array
In short: as §1

Variant | self-cleavage kobs at 40 uM GlcN6P (glucosamine-6-phosphate [1]) [s⁻¹] | self-cleavage kobs at 640 uM GlcN6P (glucosamine-6-phosphate [2]) [s⁻¹] | self-cleavage kobs at 160 uM GlcN6P (glucosamine-6-phosphate [3]) [s⁻¹] | self-cleavage kobs at 2500 uM GlcN6P (glucosamine-6-phosphate [4]) [s⁻¹] | self-cleavage kobs at 10000 uM GlcN6P (glucosamine-6-phosphate [5]) [s⁻¹]
A15G U57C | < 1e-05 |  |  |  | 
A15G U69G | 3.29e-05 ± 1.2e-05 | 6.2e-05 ± 1.2e-05 | 5.34e-05 ± 2.7e-05 | 0.00012 ± 1.7e-05 | 7.05e-05 ± 9.2e-06
A15U C34A A52U | < 1e-05 |  |  |  | 
A15U C34A G35C A48C G51C | < 1e-05 |  |  |  | 
A15U C34A U49G U57G | < 1e-05 |  |  |  | 
A15U C34G G66U C71U | < 1e-05 |  |  |  | 
A15U C50G | 3.42e-05 ± 8.1e-06 | 0.000494 ± 0.00023 | 8.86e-05 ± 1.4e-05 | 7.94e-05 ± 1.4e-05 | 
A15U C50U G60U | < 1e-05 |  |  |  | < 1e-05
A15U C68U | 1.92e-05 ± 9.6e-06 | 0.000127 ± 9.9e-06 | 4.94e-05 ± 7.4e-06 | 0.000277 ± 2.2e-05 | 0.000409 ± 2.7e-05
A15U C70U C71U | < 1e-05 |  |  |  | 
A15U G29C | 4.56e-05 ± 9.9e-06 | 0.000432 ± 7.6e-05 | 0.000116 ± 3.3e-05 | 0.000809 ± 0.00016 | 0.00191 ± 0.0003
A15U G29C G35A G40A | < 1e-05 | < 1e-05 |  |  | 
A15U G37U C67G | < 1e-05 |  | < 1e-05 |  | < 1e-05
A15U G41C | < 1e-05 |  |  |  | 
A15U G43A U57C | < 1e-05 |  |  |  | 
A15U G43U A48G G59U C67G | < 1e-05 |  |  |  | < 1e-05
A15U G59U | < 1e-05 |  | < 1e-05 |  | 
A15U U47A | 0.00015 ± 3.6e-05 | 0.000846 ± 0.00036 | 0.000273 ± 6.7e-05 | 0.00263 ± 0.00057 | 0.00356 ± 0.0009
A15U U47C C61U | < 1e-05 |  |  |  | < 1e-05
A15U U49A | < 1e-05 |  | < 1e-05 | < 1e-05 | < 1e-05
A15U U56C C61U | < 1e-05 |  |  |  | < 1e-05
A15U U56G | 0.000149 ± 2.5e-05 | 0.00143 ± 0.00018 | 0.000265 ± 5e-05 | 0.00363 ± 0.00053 | 0.00565 ± 0.00088

Variant | self-cleavage kobs at 40 uM GlcN6P (glucosamine-6-phosphate [1]) [s⁻¹] | self-cleavage kobs at 640 uM GlcN6P (glucosamine-6-phosphate [2]) [s⁻¹] | self-cleavage kobs at 160 uM GlcN6P (glucosamine-6-phosphate [3]) [s⁻¹] | self-cleavage kobs at 2500 uM GlcN6P (glucosamine-6-phosphate [4]) [s⁻¹] | self-cleavage kobs at 10000 uM GlcN6P (glucosamine-6-phosphate [5]) [s⁻¹]
A15U U57A | < 1e-05 |  |  |  | 
A15U U57A U65A | < 1e-05 | < 1e-05 |  | < 1e-05 | 
C16A A33C | < 1e-05 | < 1e-05 | < 1e-05 | < 1e-05 | 
C16A A53U C61U | < 1e-05 |  | < 1e-05 |  | 
C16A C34A A36U G43U G51A A53C U56A G62A | < 1e-05 |  |  |  | < 1e-05
C16A C34A G37U C50A C61A | 0.000276 ± 6.5e-05 |  |  |  | 0.000316 ± 6.4e-05
C16A C34U | < 1e-05 | < 1e-05 | < 1e-05 | < 1e-05 | 
C16A C61G | < 1e-05 |  |  |  | < 1e-05
C16A C70U | 5.31e-05 ± 7.6e-06 | 0.000192 ± 2.7e-05 | 0.000117 ± 3.3e-05 | 0.000365 ± 5.1e-05 | 0.0015 ± 0.00026
C16A G26A C68G | 3.64e-05 ± 1.7e-05 |  |  |  | 3.65e-05 ± 1.5e-05
C16A G29A | 7.39e-05 ± 1.3e-05 | 0.000549 ± 9.9e-05 | 0.000175 ± 3.3e-05 | 0.00127 ± 0.00024 | 0.00227 ± 0.00042
C16A G29U | 0.000701 ± 7.4e-05 | 0.00517 ± 0.00081 | 0.00212 ± 0.00064 | 0.0144 ± 0.0033 | 0.0387 ± 0.0071
C16A G32C A33G U49C | < 1e-05 | < 1e-05 | < 1e-05 |  | 
C16A G35A | < 1e-05 | < 1e-05 | < 1e-05 | < 1e-05 | < 1e-05
C16A G35U | < 1e-05 | < 1e-05 | < 1e-05 | < 1e-05 | < 1e-05
C16A G37C G51C | < 1e-05 |  |  | < 1e-05 | 
C16A G41C | < 1e-05 | < 1e-05 | < 1e-05 |  | 
C16A G44C | < 1e-05 | < 1e-05 | < 1e-05 |  | < 1e-05
C16A G51A C58A | < 1e-05 |  |  | < 1e-05 | 
C16A G60A | < 1e-05 |  |  | < 1e-05 | < 1e-05
C16A G60U | < 1e-05 | < 1e-05 | < 1e-05 | < 1e-05 | < 1e-05
